# Where “and” joins values, the source holds several entries; their conditions need not be identical. Identical values can stand only once. In all, about 230,000 compounds went through this assay and about 3,600 (1.6%) were called active. Inconclusive means that the source gave no clear call. Such entries were picked first, then a sample of the others. The call rests on the fitted dose curve; in most records, active means well fitted inhibition curve with a large enough effect (not every such curve was filed as active); inconclusive means small, poorly fitted or top-dose-only effect, or another doubt; inactive means no such curve, though single readings can be large or run the other way. Potencies beside an inconclusive call are fits to weak or partial responses and may not hold up. Where a SMILES comes first, the peptide text is derived from it. [ ]: non-standard residue; d: D form. Orn = NCCC[CH](N)C(=O)O
# Biological target: Lysine-specific demethylase 4E (Homo sapiens) (UniProt B2RXH2)
# UniProt B2RXH2, sequence (B2RXH2 whole entry, looked up, the tested form may be a part): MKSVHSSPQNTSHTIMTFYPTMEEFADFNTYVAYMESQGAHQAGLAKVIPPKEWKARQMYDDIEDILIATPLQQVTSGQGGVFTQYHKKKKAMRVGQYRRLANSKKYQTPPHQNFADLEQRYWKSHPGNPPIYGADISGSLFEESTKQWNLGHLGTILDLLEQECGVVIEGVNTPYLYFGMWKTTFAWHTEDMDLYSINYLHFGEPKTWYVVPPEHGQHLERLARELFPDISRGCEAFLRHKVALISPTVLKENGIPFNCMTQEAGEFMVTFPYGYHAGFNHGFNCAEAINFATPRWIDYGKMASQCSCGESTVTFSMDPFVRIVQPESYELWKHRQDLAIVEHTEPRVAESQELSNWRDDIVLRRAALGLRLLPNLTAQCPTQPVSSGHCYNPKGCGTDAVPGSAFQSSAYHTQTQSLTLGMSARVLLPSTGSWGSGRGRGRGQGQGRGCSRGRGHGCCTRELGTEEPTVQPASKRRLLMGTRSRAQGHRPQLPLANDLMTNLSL
# Test: qHTS Assay for Inhibitors of Human Jumonji Domain Containing 2E (JMJD2E)
# Settings: JMJD2E catalytic domain, FDH-coupled NADH fluorescence (FDH is formaldehyde dehydrogenase); series mostly up to 57.1 µM
# Further: nearly all actives have a fitted effect of over 50% in size.
# Potency means the concentration at half of the fitted maximal effect; tags describe the fitted curve by direction and shape.
row,SMILES,Potency
1,COc1ccc(S(=O)(=O)N[C@H](C(=O)N2CC[C@@]3(O)CCCC[C@H]3C2)c2ccccc2)cc1,inactive
2,CC(C)Cn1cc(C(=O)N2CCN(c3ccccn3)CC2)c2c3ccccc3n(C)c2c1=O,"inconclusive: 31.6 µM [inhibitor, partial curve]"
3,COc1ccccc1NS(=O)(=O)c1ccc(O)c(C(=O)OCC(=O)N2c3ccccc3CC2C)c1 (stereo unspecified),"inconclusive: 25.1 µM [inhibitor, single point]"
4,Cc1ccc(NC(=O)c2ccccc2NS(=O)(=O)c2ccc(F)cc2)cc1S(=O)(=O)N1CCCCC1,"inconclusive: 31.6 µM [inhibitor, partial curve]"
5,Cc1ccc(Nc2nc(-c3ccc(O)c(O)c3)cs2)nc1,"inconclusive: 39.8 µM [inhibitor, single point]"
6,COc1ccccc1N1CCN(/N=C/C=C\c2ccccc2[N+](=O)[O-])CC1,"inconclusive: 39.8 µM [inhibitor, single point]"
7,COCCn1c(SCC(=O)c2ccc(F)cc2)nnc1C(C)C,"inconclusive: 39.8 µM [inhibitor, single point]"
8,CCOc1ccccc1NC(=O)C(=O)NCC1CCCN1CC (stereo unspecified),"inconclusive: 39.8 µM [inhibitor, single point]"
9,O=C(CCS(=O)(=O)c1ccc(Cl)cc1)Nc1ccc(N2CCOCC2)cc1,inactive
10,Cc1ccc(NC(=O)Cc2noc3ccccc23)cc1,"inconclusive: 22.4 µM [inhibitor, single point]"
11,Cc1ccc(-c2n[nH]c(=S)n2/N=C/c2c(C)[nH]n(-c3ccccc3)c2=O)cc1,"inconclusive: 39.8 µM [inhibitor, single point]"
12,CC(=O)c1c(O)cc(C(C)C)n(-c2ccccc2)c1=O,"inconclusive: 39.8 µM [inhibitor, single point]"
13,C=CCc1ccc(OCCOCCOc2cccc3ccc(C)nc23)c(OC)c1,"inconclusive: 39.8 µM [inhibitor, single point]"
14,Cc1ccc(S(=O)(=O)NCc2ccncc2)cc1,inactive
15,COc1cccc([C@@H]2Oc3ccc(OC)cc3C[C@H]2OC(=O)NS(=O)(=O)c2ccc(C)cc2)c1,inactive
16,CCCN(Cc1cc2cccc(C)c2[nH]c1=O)S(C)(=O)=O,"inconclusive: 39.8 µM [inhibitor, single point]"
17,CC1(C)CC(=O)c2cc(OCC(=O)N3CCN(c4ccccc4F)CC3)ccc2O1,"inconclusive: 28.2 µM [inhibitor, partial curve]"
18,C=CCN1CCc2c(cc(O)c(O)c2Cl)C(c2ccccc2)C1 (stereo unspecified),active: 14.1 µM and active: 12.6 µM
19,COc1ccccc1-c1ccc2ncnc(N3CCN(C)CC3)c2c1,"inconclusive: 25.1 µM [inhibitor, partial curve]"
20,COc1ccc(-c2nc3c(c(=O)[nH]c(=O)n3Cc3ccccc3)n2Cc2ccccc2)cc1,"inconclusive: 31.6 µM [inhibitor, partial curve]"
21,COc1cc(C2=NOC(C(=O)NCc3ccccn3)C2)cc(OC)c1OC (stereo unspecified),inactive
22,COC(=O)[C@@]1(Cc2ccc(OC)cc2)[C@H]2c3cc(C(=O)N(C)C)n(CCN4CNCC4=O)c3C[C@H]2CN1C(=O)c1ccccc1,"inconclusive: 39.8 µM [inhibitor, single point]"

row,SMILES,Potency
1,O=c1[nH]c2cc(Cl)ccc2c(O)c1-c1cccc(Oc2ccccc2)c1,"inconclusive: 28.2 µM [inhibitor, partial curve]"
2,COC(=O)[C@@]1(Cc2ccc(OC)cc2)[C@H]2c3cc(C(=O)N4CCCC4)n(CCc4ccc(OC)c(Br)c4)c3C[C@H]2CN1C(=O)c1ccccc1,inactive
3,CCOC(=O)C1CCN(C(=O)c2sccc2Cl)CC1,inactive
4,CCN(c1cccc(C)c1)C(C(=O)Nc1ccc(OC)cc1)c1cc2c(cc1[N+](=O)[O-])OCO2 (stereo unspecified),"inconclusive: 39.8 µM [inhibitor, single point]"
5,Cn1c(CN2CCCCC2)c(C#N)c2ccccc21,inactive
6,CC1=C(C(=O)O)N2C(=O)[C@@H](NC(=O)C(N)C3=CCC=CC3)[C@H]2SC1 (stereo partly specified),active: 22.4 µM
7,COCC(=O)n1nc(-c2ccc(Cl)cc2)nc1NCc1ccc(F)cc1,"inconclusive: 39.8 µM [inhibitor, single point]"
8,Cc1cccc(CCNC(=O)C2CCN(S(=O)(=O)c3ccccc3)CC2)c1,inactive
9,Cn1c(=O)[nH]c(=O)c2c1ncn2CCCc1ccccc1,"inconclusive: 35.5 µM [inhibitor, single point]"
10,CCN1C(=O)/C(=C\N(C(C)=O)c2ccccc2)OC1=S,inactive
11,Cc1ccc(S(=O)(=O)N2CCC(CN3C(=O)c4cccc5cccc(c45)C3=O)CC2)cc1,"inconclusive: 20 µM [inhibitor, partial curve]"
12,O=C(NC(=S)Nc1nc(-c2ccccc2)cs1)c1ccco1,inactive
13,Cc1occc1C(=O)Nc1nnc(-c2ccncc2)s1,"inconclusive: 22.4 µM [inhibitor, partial curve]"
14,C=CCOC(=O)C1=C(C)NC(SC)=C(C#N)C1c1ccc(OCC)cc1 (stereo unspecified),"inconclusive: 39.8 µM [inhibitor, single point]"
15,CCOC(=O)N1CCN(CC(O)COCc2cc(OC)c(OC)c(OC)c2)CC1 (stereo unspecified),inactive
16,CCOC(=O)c1sc2nc(CC(=O)OC)nc(NCc3ccc(Cl)cc3)c2c1C,"inconclusive: 28.2 µM [inhibitor, partial curve]"
17,N#CC(=C1CCCC1)c1nc(-c2cc3ccccc3oc2=O)cs1,"inconclusive: 6.31 µM [inhibitor, full curve]"
18,CCc1ccccc1NC(=O)C(C#N)Cc1cccnc1 (stereo unspecified),inactive
19,Oc1sc(C=Nc2ccc(F)cc2)c2ccccc12,"inconclusive: 31.6 µM [inhibitor, single point]"
20,Cc1ccccc1-n1c(-c2csc3ccccc23)n[nH]c1=S,inactive
21,Cc1cccc(CN(C(=S)Nc2c(C)cccc2C)c2cccnc2)c1,"inconclusive: 35.5 µM [inhibitor, single point]"
22,CC(C)CNC(=O)c1c(N)n(/N=C/c2ccccn2)c2nc3ccccc3nc12,"inconclusive: 3.55 µM [inhibitor, single point]"

row,SMILES,Potency
1,O=C(CCc1nc2ccccc2c(=O)[nH]1)Nc1ccc(F)cc1,inactive
2,Cc1oc2cc(O)ccc2c(=O)c1N1C(=O)c2ccccc2C1=O,inactive
3,COc1ccc(CCNC(=O)c2cc(-c3ccc(C)c(C)c3O)n[nH]2)cc1OC,inactive
4,CC(C)CC1NC(=O)C(CCCN)NC(=O)C(C(C)C)NC(=O)C2CCCN2C(=O)C(Cc2ccccc2)NC(=O)C(CC(C)C)NC(=O)C(CCCN)NC(=O)C(C(C)C)NC(=O)C2CCCN2C(=O)C(Cc2ccccc2)NC1=O (stereo unspecified) (cyclo(FPV[Orn]LFPV[Orn]L); configuration not given here),active: 25.1 µM
5,CCOC(=O)c1sc2nc3n(c(=O)c2c1C)CCC3,"inconclusive: 35.5 µM [inhibitor, single point]"
6,CC1=C2[C@@H](O)[C@H]([C@@H](C)C(=O)NCCC(C)C)CC[C@@]2(C)C=CC1=O,"inconclusive: 39.8 µM [inhibitor, single point]"
7,COc1cc2c(cc1OC)C(C(=O)N1CCCCC1)C(c1ccccc1F)N(C)C2=O (stereo unspecified),"inconclusive: 39.8 µM [inhibitor, single point]"
8,Cc1cc([N+](=O)[O-])nn1CC(=O)NCCc1c[nH]c2ccccc12,inactive
9,CCn1cc(C(=O)OCC(=O)c2cc(C)n(-c3ccccc3)c2C)c(=O)c2ccc(C)nc21,inactive
10,CC(C)(C)c1csc(NC(=O)c2ccc3nccnc3c2)n1,"inconclusive: 28.2 µM [inhibitor, single point]"
11,COc1ccc(/C=C2\CCc3c2nc2ccccc2c3C(=O)O)cc1OC,"inconclusive: 25.1 µM [inhibitor, partial curve]"
12,CC(C)OCCCN1CN(S(=O)(=O)c2ccc(Cl)cc2)c2nc3ccccc3nc21,"inconclusive: 25.1 µM [inhibitor, partial curve]"
13,Cc1nc2c([nH]1)C1(CCN(Cc3ccccc3)CC1)C(C#N)=C(N)O2,"inconclusive: 35.5 µM [inhibitor, single point]"
14,COc1cc2c(cc1OC)C(C1C(=O)CC(C)(C)CC1=O)N(C(=O)CCl)CC2 (stereo unspecified),"inconclusive: 31.6 µM [inhibitor, partial curve]"
15,CCN(CC)S(=O)(=O)c1ccc2oc(C(=O)NC(C)C)c(C)c2c1,"inconclusive: 39.8 µM [inhibitor, single point]"
16,CCSC(=S)c1c(C)[nH]n(-c2ccccc2)c1=O,"inconclusive: 25.1 µM [inhibitor, single point]"
17,N#CCC(=N)N1CCN(c2ccccc2)CC1,"inconclusive: 39.8 µM [inhibitor, single point]"
18,C=CCN1C(c2ccc(Br)cc2)=CS/C1=C(/C#N)c1nnc(N2CCOCC2)n1-c1ccccc1,"inconclusive: 20 µM [inhibitor, partial curve]"
19,COc1ccc(CCn2c(NCc3ccco3)nc3c2c(=O)[nH]c(=O)n3C)cc1,inactive
20,COc1ccc(C(=O)N2CCN(C3CCC(c4ccccc4)CC3)CC2)cc1OC (stereo unspecified),"inconclusive: 31.6 µM [inhibitor, single point]"
21,N=C1C(c2nc3ccccc3c(=O)[nH]2)=C(O)CN1CCO,"inconclusive: 35.5 µM [inhibitor, partial curve]"
22,CN(CCN(C)C(C)(C)C)C(=O)C(c1ccccc1)c1ccccc1,"inconclusive: 28.2 µM [inhibitor, single point]"

# Reference: PubChem BioAssay AID2147 (National Center for Advancing Translational Sciences (NCATS), 2009)
